Measured values from article PMC4336329 (PLoS ONE, 2015).
Hit rate of the full screen: of about 310,000 compounds, about 2,200 (0.71%) showed an effect of 50% or more. Effects have a minus sign here. Some of the results follow.

What follows are molecules tested against human ether-à-go-go-related gene (hERG) potassium channel (human, UniProt Q12809) (assay: primary screen, population patch clamp on CHO cells stably expressing hERG).
Chain of human ether-à-go-go-related gene (hERG) potassium channel (Q12809 whole entry, looked up): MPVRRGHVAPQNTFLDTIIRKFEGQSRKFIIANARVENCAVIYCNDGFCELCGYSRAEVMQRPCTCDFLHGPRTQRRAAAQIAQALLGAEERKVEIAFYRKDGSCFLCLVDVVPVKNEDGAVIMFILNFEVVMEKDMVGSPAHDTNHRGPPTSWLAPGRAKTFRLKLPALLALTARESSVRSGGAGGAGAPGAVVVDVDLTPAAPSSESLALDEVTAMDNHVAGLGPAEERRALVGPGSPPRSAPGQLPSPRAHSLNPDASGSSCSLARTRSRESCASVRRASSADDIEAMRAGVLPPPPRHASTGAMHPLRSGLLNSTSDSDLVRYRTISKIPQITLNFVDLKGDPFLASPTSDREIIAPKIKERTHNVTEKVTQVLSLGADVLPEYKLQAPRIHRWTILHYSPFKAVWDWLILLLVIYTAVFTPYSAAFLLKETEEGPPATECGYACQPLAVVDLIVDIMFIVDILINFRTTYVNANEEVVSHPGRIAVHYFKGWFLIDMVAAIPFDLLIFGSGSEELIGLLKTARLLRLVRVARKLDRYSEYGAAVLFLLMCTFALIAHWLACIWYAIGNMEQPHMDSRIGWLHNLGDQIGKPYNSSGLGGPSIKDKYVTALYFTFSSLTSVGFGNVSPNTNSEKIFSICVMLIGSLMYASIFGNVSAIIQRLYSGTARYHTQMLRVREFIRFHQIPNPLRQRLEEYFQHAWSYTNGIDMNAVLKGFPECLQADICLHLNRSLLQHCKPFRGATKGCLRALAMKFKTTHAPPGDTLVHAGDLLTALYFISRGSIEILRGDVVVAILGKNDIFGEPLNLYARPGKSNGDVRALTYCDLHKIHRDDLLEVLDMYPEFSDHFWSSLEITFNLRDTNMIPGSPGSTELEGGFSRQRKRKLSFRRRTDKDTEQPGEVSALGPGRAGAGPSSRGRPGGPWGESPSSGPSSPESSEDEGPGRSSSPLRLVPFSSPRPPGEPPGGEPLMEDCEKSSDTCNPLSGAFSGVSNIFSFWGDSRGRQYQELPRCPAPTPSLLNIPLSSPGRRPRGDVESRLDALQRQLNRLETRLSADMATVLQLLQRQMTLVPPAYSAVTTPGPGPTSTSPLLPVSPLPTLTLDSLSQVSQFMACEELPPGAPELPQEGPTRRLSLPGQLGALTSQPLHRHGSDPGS

Point of comparison: `CN(C)CCN(C(=O)CCS(=O)(=O)c1ccccc1)c1nc2c(F)cccc2s1`, “hERG current change (%, negative = inhibition) at 1uM” value 17.7%. Against it:
- COc1cc(Br)cc(/C=C/c2ccc3cccc(O)c3n2)c1O — lower, 16.8%
- COc1ccc(S(=O)(=O)Nc2cc(OC)c(NC(=O)c3ccco3)cc2OC)cc1 — lower, 6.01%
- Cn1c(NCCCO)nc2c1c(=O)n(Cc1ccccc1F)c(=O)n2C — lower, 4.91%
- Cc1n[nH]c(C)c1CCNC(=O)C1CCC(=O)N(CCc2cccc(F)c2)C1 (centres unmarked) — lower, 9.88%
- COc1ccc(Cn2c(O)c(C=NCCCn3ccnc3)c(=O)[nH]c2=O)cc1 — lower, 2%
- O=c1c2ccccc2nc(C[n+]2ccccc2)n1-c1cccc(C(F)(F)F)c1.[Br-] — lower, 5.64%
- O=S(=O)(c1ccc(Cl)cc1)N1CCN(C(=S)NCC2CCCO2)CC1 (centres unmarked) — lower, 8.76%
- COc1cccc(CCc2nnc(CCC(=O)N3CCCC3c3nccs3)o2)c1 (centres unmarked) — lower, 15.1%
- O=C(NCCc1cccs1)C1CC(c2ccccc2[N+](=O)[O-])=NO1 (centres unmarked) — lower, 6.79%
- COc1cc(C(=O)NNC(=O)c2ccc(S(=O)(=O)N3CCCCC3)cc2)cc(OC)c1OC — lower, -15.7%
- COc1ccc(-c2ccc(CCC(=O)O)n2NC(=O)c2ccc(O)cc2)cc1 — lower, 10.9%
- CNC(=O)c1ccc(NC(=O)Nc2ccccc2)cc1 — lower, 9.05%
- COc1ccccc1NC(=O)CSc1nnc(-c2ccccn2)n1Cc1ccco1 — lower, 11.3%
- Cc1ccc(C(=O)CCC(=O)Nc2cccc(C)c2)cc1 — lower, 15.9%
- O=C(CSc1ncnc2c1nnn2Cc1ccc(F)cc1)NC1CCCCC1 — lower, 8.72%
- Cc1cc(C(=O)N=Nc2c(O)n(C(C)C)c3ccccc23)n[nH]1 — lower, 0.743%
- COc1ccccc1OCC(=O)N1CCC2(CC1)CC(=O)c1ccccc1O2 — lower, -4.96%
- CC(=O)c1nn(-c2ccccc2)cc1C(=O)c1ccc(Br)cc1 — higher, 20.8%
- COC(=O)CSc1nnc(-c2ccco2)o1 — lower, 14.4%
- CCCCC(CC)CNC(=O)/C=C/c1ccc(F)cc1 (centres unmarked) — lower, 9.7%
- CCOc1ccc(-c2csc(NC(=O)CSCC(=O)O)n2)c2ccccc12 — lower, 12.4%
- CCOc1cc(CNc2ncn[nH]2)ccc1OCC(=O)NC(C)(C)C — lower, 10.6%
- COc1cc2c(cc1OC)C(CC(=O)O)N(C(=O)CC1CCCC1)CC2 (centres unmarked) — lower, 10.9%
- O=C1NCC(c2ccccc2)C1C(=O)N/N=C\c1ccc(-c2ccc(Cl)c(Cl)c2)o1 (centres unmarked) — higher, 19.5%
- CCCCN(CCCC)CCNC(=O)c1cn(C)c2ccc(S(=O)(=O)N(C)C3CCCCC3)cc2c1=O — lower, -32.3%
- COc1ccc(CCNC(=O)CN2C(=O)COc3ccc(S(=O)(=O)N4CCOCC4)cc32)cc1OC — lower, 6.98%
- Cc1ccccc1CN1CCN(Cc2ccccc2)CC1.O=C(O)C(=O)O — lower, 6.37%
- CCCn1c(SCC(=O)NC)nc2sc3c(c2c1=O)CCC3 — lower, 13.9%
- COC(=O)C1CCCCN1C(=O)c1ccc2oc(Cc3ccccc3)nc2c1 (centres unmarked) — lower, 7.55%
- COCC(=O)OCC(=O)Nc1ccccc1-c1ccccc1 — lower, 15.2%
- O=C(Nc1ccccc1)N1CCN(Cc2ccc3c(c2)OCO3)CC1 — lower, -0.794%
- CC(C)Cn1c(N)c(C(=O)COC(=O)C2CC(=O)N(c3ccc4c(c3)OCCO4)C2)c(=O)n(C)c1=O (centres unmarked) — lower, -18.4%
- COc1ccc(NC(=O)CSc2nnc(-c3cccnc3)s2)cc1 — lower, 7.86%
- Cn1nnnc1SCC(=O)NCc1cccc(C(=O)O)c1 — lower, -8.8%
- CCCCCc1ccc(-c2cn(CCc3c[nH]c4ccccc34)nn2)cc1 — lower, 1.43%
- COc1ccc(NC(=O)c2cc(Br)c(Br)s2)cn1 — lower, -0.0288%
- Cc1cccc(N(NC(=O)C(C)(C)O)C(=O)c2ccccc2)c1 — lower, 12.4%
- C=C(C)CN(CC)C(=O)CCc1nnc(CCc2c[nH]c3ccccc23)o1 — lower, 8.05%
- CCOC(=O)C1(O)CC(C)=NN1C(=O)c1cccc(Cl)c1 (centres unmarked) — lower, 14.6%
- Cc1cc(NC(=O)CSCC(=O)Nc2cc(C(F)(F)F)ccc2N2CCOCC2)no1 — lower, 12.4%
- CC(C)C(NC(=O)Cc1ccccc1[N+](=O)[O-])C(C)C — lower, 6.36%
- Cc1cc(C)c(C)c(S(=O)(=O)Nc2ccc(C(N)=O)cc2)c1C — lower, 13.9%
- CC(C)C(NC(=O)C1CCC(C(C)(C)C)CC1)C(=O)NCc1cccnc1 (centres unmarked) — lower, 9.78%
- Cc1cc(C)nc(Oc2ccc(Br)cc2)n1 — the same, 17.7%
- CC(C)(C)c1ccc(NC(=O)CNC2CCCc3ccccc32)cc1.Cl (centres unmarked) — lower, 11.1%
- Cc1nnc(Sc2cc(C(=O)NCc3ccco3)c3ccccc3n2)s1 — lower, 2%
- O=C(O)CC(CC(=O)Nc1ccc(N2CCOCC2)cc1)c1ccccc1 (centres unmarked) — lower, 15.2%
- Cc1ccc(N=Nc2ccc(C)cc2NC(=O)Nc2ccccc2F)cc1 — lower, 9.9%
- CC12CN(C(=O)c3ccccc3)C3(C#N)CC1CCC23C (centres unmarked) — lower, 7.43%
- COc1ccc(C)cc1Cn1c(S(C)(=O)=O)nc2ccccc21 — lower, 9.02%
- COc1cc(-c2nc(-c3ccccc3)c(-c3cc([N+](=O)[O-])ccc3C)[nH]2)cc(OC)c1OC — lower, 9.09%
- Nc1ccc(-c2c3ccccc3nc3ccccc23)cc1 — lower, 13.4%
- CS(=O)(=O)N(Cc1ccc(Cl)cc1)c1ccc(C(=O)NCC2CCCO2)cc1 (centres unmarked) — lower, -3.84%
- CCN(CC)C(=O)/C(=C\c1ccncc1)NC(=O)c1ccccc1 — lower, 1.54%
- CC(=O)c1sc(-c2ccc(Cl)cc2)nc1C — lower, 9.05%
